Results reported in PubChem BioAssay.
This list was built around the results that the source calls inconclusive (neither active nor inactive); the mix of calls is not that of the screen. The source made the active and inactive calls.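 How the source made its calls: active means viability at or under a set limit in both replicates, limit being median viability minus 3 SD (cut at about 48% in these data, passing the limit was not always enough); inconclusive means at or under the limit in just one replicate; inactive means at or above the limit in both replicates.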

Test: H69AR cell proliferation blockers – human, duplicate replicates, primary screen (AID 580);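 further: 100% = mean luminescence of untreated wells and 0% = no signal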
Conditions: H69AR lung tumor cells viability, ATP luminescence, 72 h; at 10 µM; hits give low values

| Compound | viability |
| --- | --- |
| C=C(C)COc1ccc(-c2nc(N)ncc2Oc2ccccc2OCC)c(O)c1 | inconclusive: 39.1% |
| CC1CCN(CCc2nc3cc(NS(=O)(=O)c4ccc(F)cc4)ccc3n2C)CC1 | inconclusive: 52.4% |
| Cc1cccc(OCC(=O)Nc2cc(C)ccc2O)c1 | inconclusive: 37.4% |
| CC1C(O)=C(c2nc3ccccc3[nH]2)C(=N)N1c1ccccc1 (centres undefined) | active: 16% |
| Cc1csc(NC(=O)CSc2nsc(SCC(=O)Nc3nc(C)cs3)c2C#N)n1 | active: 6.57% |
| CN(C)c1ccc(O)c2c1CC1CC3[C@@H](N(C)C)C(=O)C(C(N)=O)=C(O)[C@]3(O)C(=O)C1=C2O (some centres undefined) | inconclusive: 32.7% |
| CN(C)S(=O)(=O)c1ccc2c(c1)C(CC(=O)O)OC2=O (centres undefined) | inactive: 96.1% |
| Cc1cc(CN2CCN(CCC#N)CC2)c(O)c(C2(C)CCCCC2)c1 | inconclusive: 64.9% |
| COc1ccc(/C=N/n2cc(-c3ccc(OC)cc3)nc2N)cc1 | inconclusive: 53.3% |
| Cc1cccc(OCC(=O)Nc2ccc(N3CCCC3)cc2)c1C | inconclusive: 56.5% |
| Cn1c(=O)cc(OCCCC(=O)Nc2ccc3c(c2)OCCO3)c2ccccc21 | inconclusive: 65.5% |
| Cc1nc(SCC(=O)Nc2cc(C)on2)c2c3c(sc2n1)CCCC3 | active: 30.4% |
| Cn1c(Cc2ccccc2)nnc1SCC(=O)c1ccc(Br)s1 | inconclusive: 49.4% |
| COc1cccc(C2CC(c3ccc(C)cc3)n3nc(N)nc3N2)c1 (centres undefined) | inactive: 98.2% |
| N#CC1=C(N)n2c(s/c(=C\c3ccco3)c2=O)=C(C#N)C1c1ccco1 (centres undefined) | inconclusive: 47.4% |
| Cc1cccc(N2CCN(C(=O)c3ccc(NS(=O)(=O)c4c(C)noc4C)cc3)CC2)c1C | inconclusive: 59.8% |
| O=c1[nH]c(NCc2ccco2)nnc1Cc1ccccc1Cl | active: 13.3% |
| Cc1ccc2c(c1)NC(=O)C(CC(=O)NCCN(CC(C)C)CC(C)C)O2 (centres undefined) | inactive: 91.6% |
| COc1cc(N=c2ssnc2Cl)cc(OC)c1 | active: 3.23% |
| CCOC(=O)CSc1ncnc2c1cnn2-c1ccc(C)cc1 | inactive: 90.6% |
| Cc1c(C(=O)NC2CCCc3ccccc32)oc2ccc(S(=O)(=O)N3CCOCC3)cc12 (centres undefined) | inconclusive: 52.2% |
| N#Cc1nc(-c2cccs2)oc1NCCc1ccccc1 | inactive: 102% |
| COc1cccc(-c2nc(CS(=O)(=O)CC(=O)Nc3cc(C)ccc3C)c(C)o2)c1 | inconclusive: 66.1% |
| c1cc(C(c2nnnn2C2CCCC2)N2CCOCC2)ccn1 (centres undefined) | inactive: 91.9% |
